The whole screen tested about 310,000 compounds, of which about 2,200 (0.71%) showed an effect of 50% or more. The effect is printed as a negative number. The list shows a part of the results.
Each compound was assayed against human ether-à-go-go-related gene (hERG) potassium channel (human, UniProt Q12809) (assay: primary screen, population patch clamp on CHO cells stably expressing hERG).
Sequence of human ether-à-go-go-related gene (hERG) potassium channel (Q12809 whole entry, looked up): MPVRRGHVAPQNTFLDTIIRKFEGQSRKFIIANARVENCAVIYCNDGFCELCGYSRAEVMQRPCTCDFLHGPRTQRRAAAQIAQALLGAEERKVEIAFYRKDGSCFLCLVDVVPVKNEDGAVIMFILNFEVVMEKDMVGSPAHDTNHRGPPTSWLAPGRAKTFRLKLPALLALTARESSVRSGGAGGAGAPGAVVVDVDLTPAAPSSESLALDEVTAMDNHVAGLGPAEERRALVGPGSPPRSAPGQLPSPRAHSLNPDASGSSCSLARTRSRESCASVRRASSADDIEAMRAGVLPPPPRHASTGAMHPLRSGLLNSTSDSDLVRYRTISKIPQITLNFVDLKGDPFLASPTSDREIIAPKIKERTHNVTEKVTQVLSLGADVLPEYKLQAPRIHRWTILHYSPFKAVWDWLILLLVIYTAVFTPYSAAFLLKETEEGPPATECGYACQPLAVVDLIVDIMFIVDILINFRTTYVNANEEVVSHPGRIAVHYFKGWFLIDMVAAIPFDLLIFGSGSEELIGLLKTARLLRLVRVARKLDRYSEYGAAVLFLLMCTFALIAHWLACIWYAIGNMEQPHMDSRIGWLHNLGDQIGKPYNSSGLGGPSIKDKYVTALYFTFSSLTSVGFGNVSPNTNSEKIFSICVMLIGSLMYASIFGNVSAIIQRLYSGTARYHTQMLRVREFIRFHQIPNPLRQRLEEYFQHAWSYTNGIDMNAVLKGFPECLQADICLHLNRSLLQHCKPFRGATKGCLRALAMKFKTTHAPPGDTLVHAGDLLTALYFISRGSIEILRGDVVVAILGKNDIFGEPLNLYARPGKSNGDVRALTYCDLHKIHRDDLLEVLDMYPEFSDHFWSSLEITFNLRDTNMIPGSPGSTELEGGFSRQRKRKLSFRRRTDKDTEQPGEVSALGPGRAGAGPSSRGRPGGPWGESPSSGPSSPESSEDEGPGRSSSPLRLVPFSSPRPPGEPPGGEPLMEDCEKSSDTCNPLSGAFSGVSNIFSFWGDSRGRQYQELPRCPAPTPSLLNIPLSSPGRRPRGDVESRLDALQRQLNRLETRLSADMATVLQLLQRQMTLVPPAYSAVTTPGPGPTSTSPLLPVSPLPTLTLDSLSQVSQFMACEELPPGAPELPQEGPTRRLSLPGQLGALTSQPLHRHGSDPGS

Compound | hERG current change (%, negative = inhibition) at 1uM
COc1cccc(N/C(N)=N/c2nc(C(F)(F)F)cc(=O)[nH]2)c1 | 6.94%
O=C(Nc1ccccc1)Nc1nnc(Cc2ccccc2F)s1 | 6.83%
CCOP(=O)(OCC)C(NS(=O)(=O)c1ccccc1)C(Cl)(Cl)Cl (stereo not drawn) | 15.8%
N#Cc1c(N)n(-c2ccc(O)cc2)c2nc3ccccc3nc12 | 10.3%
CCC(=O)N=c1sc2cc([N+](=O)[O-])ccc2n1CCOC | 7.03%
COC(=O)C1=CO[C@@H](O[C@@H]2OC(CO)[C@@H](O)[C@@H](O)[C@@H]2O)C2C1CC[C@]2(C)O (stereo partly drawn) | 3.3%
Cc1cc([N+](=O)[O-])ccc1NC(=O)C(C)N1CCN(c2ccccn2)CC1 (stereo not drawn) | -40%
NC(=O)/C(=C/c1ccco1)NC(=O)c1ccc(Br)o1 | 5.74%
COc1ccc(CNC(=S)Nc2cccc(C)c2)cc1 | 0.33%
CCOC(=O)C(C)Sc1nc2c([nH]c3ccccc32)c(=O)n1C (stereo not drawn) | 1.76%
COc1ccc(C(=O)Cn2nnc(-c3ccccc3NC(=O)C3CC3)n2)cc1 | 9.19%
COc1ccc(Nc2cc(C(=O)NCCCN3CCN(C)CC3)c3ccccc3n2)cc1 | 8.65%
OCCC1CN(Cc2ccccc2O)CCN1CCCc1ccccc1 (stereo not drawn) | -20.5%
Cc1cccc(CC(=O)N2CCC(n3nccc3NC(=O)C3CC3)CC2)c1 | 18%
COC(=O)c1sc2nc(C)nc(SCC(=O)N3CCC(C(=O)O)CC3)c2c1C | 13.7%
COc1ccccc1CNC(=O)CN(C)CC(=O)Nc1cccc(F)c1 | 7.83%
O=S1(=O)CC(O)C(NCc2ccco2)C1 (stereo not drawn) | -5.67%
CCOc1ccc(CN2CCCC(CO)(Cc3ccccc3F)C2)cc1 (stereo not drawn) | -11.4%
CCCCN(CC)S(=O)(=O)c1ccc(C(=O)N(CCCN(C)C)c2nc3cc(C)cc(C)c3s2)cc1.Cl | -34.6%
COc1ccc(N(C(=O)c2cccc(OC)c2OC)C2C=CS(=O)(=O)C2)c(OC)c1 (stereo not drawn) | 5.11%
CCOC(=O)c1nnn(-c2nonc2N)c1-c1ccccc1 | 11.1%
Cc1ccc(N(C(=O)C2CCCC2)C2C=CS(=O)(=O)C2)cc1C (stereo not drawn) | 3.46%
Cc1nn(CC#N)c(=O)n1-c1ccccc1F | 8.19%

Compound | hERG current change (%, negative = inhibition) at 1uM
O=C(CC1(O)C(=O)Nc2ccccc21)c1ccccc1 (stereo not drawn) | 10.9%
CC(C)(C)c1ccc(OCCC(=O)Nc2cccc(S(=O)(=O)N3CCCC3)c2)cc1 | 12%
CCOc1ccc(/C(O)=C2/C(=O)C(=O)N(CCOCCO)C2c2ccc(F)cc2)cc1 (stereo not drawn) | -2.22%
NCc1cccc(-n2cccn2)c1.O=C(O)CC(=O)O | 1.29%
O=C(NCc1ccccc1)c1ccccc1OCC(=O)N1CCCCC1 | -2.15%
CC1(C)CCC/C(=C\c2ccccc2)C1=O | 4.83%
S=C(NCc1ccc(Cl)cc1)Nc1ccccc1Cl | 13.6%
O=C(COC(=O)c1cc([N+](=O)[O-])ccc1NCCO)Nc1cccc(S(=O)(=O)N2CCCC2)c1 | 21.8%
O=C(Nc1ccncc1)c1c(F)cccc1F | -13.1%
CCn1c(CN2CCOCC2)nnc1SCC(=O)Nc1ccc(C(C)=O)cc1 | 11.2%
Cc1cccc(-c2noc(CCC(=O)NC3CCCCC3)n2)c1 | 4.84%
COc1ccc(C2CC(c3cccs3)=NN2C(=O)COC(=O)c2cc3ccccc3cc2O)cc1OC (stereo not drawn) | 5%
CC(C(=O)N1CCCc2ccccc21)N1CCN(S(=O)(=O)c2ccccc2F)CC1 (stereo not drawn) | 1.16%
COc1cc(CC(=O)OCC(=O)Nc2ccccc2C#N)cc(OC)c1OC | 6.64%
O=C1c2cc(Cl)ccc2OC2(CCNCC2)C12CC(c1ccc(Cl)cc1)=NO2 (stereo not drawn) | 7.36%
CCc1n[nH]c2c1/C(=N/O)CCC2 | -3.49%
OC1(c2cccs2)CN(c2ccc(Cl)cc2)C2=[N+]1CCCC2.[Br-] (stereo not drawn) | -13.7%
CC1CCCN(C(=O)Cn2c(=O)oc3cc(S(=O)(=O)N4CCCCC4)ccc32)C1 (stereo not drawn) | 9.18%
CSc1nc2ccc(NS(=O)(=O)c3ccc(Br)s3)cc2s1 | 15.9%
COc1ccccc1CNC(=O)CSc1nnc2c(Cl)cc(C(F)(F)F)cn12 | 3.91%
Cc1ccc(CNC(=O)CCCc2c[nH]c3ccccc23)cc1 | 3.99%
O=C(CCN1C(=O)c2ccccc2S1(=O)=O)Nc1ccc2c(c1)OCCO2 | 14.9%

— paper PMC4336329 (PLoS ONE, 2015)
